Reference: PubChem BioAssay AID1159614 (National Center for Advancing Translational Sciences (NCATS), 2016)
In all, about 45,000 compounds went through this assay and about 65 (0.1%) were called active. Calls come from the whole dose curve; as a rule, active = well fitted activation curve with a large enough effect; inconclusive = small, poorly fitted or top-dose-only effect; inactive = no such curve, though single readings can be large or run the other way. Some of the results follow.

Each compound was assayed against Galactocerebrosidase (Homo sapiens) (UniProt P54803) (assay: A Novel Cell-Based Assay to Identify Small Molecules for B -Galactocerebrosidase). Details: 145M-Twi-hGALC-G270D cells (Twitcher mouse brain line with human GALC G270D), HMU-beta-Gal fluorescence, 48 h; series mostly up to 57.5 µM; activation: at the top concentration.
How it was run: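 Fluorescence readout: HMU-β-gal cleavage by mutant GALC (0.1 mM final, citrate/phosphate pH 5.2 with 1 mg/mL taurocholate), stopped with carbonate/bicarbonate plus Triton X-100. Cells: murine Twitcher 145M-Twi expressing human G270D GALC; qHTS for activators.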
Note: 0% is about no effect; nearly all actives have a fitted effect of over 65% in size.

Sequence of UniProt P54803 (P54803 whole entry, looked up): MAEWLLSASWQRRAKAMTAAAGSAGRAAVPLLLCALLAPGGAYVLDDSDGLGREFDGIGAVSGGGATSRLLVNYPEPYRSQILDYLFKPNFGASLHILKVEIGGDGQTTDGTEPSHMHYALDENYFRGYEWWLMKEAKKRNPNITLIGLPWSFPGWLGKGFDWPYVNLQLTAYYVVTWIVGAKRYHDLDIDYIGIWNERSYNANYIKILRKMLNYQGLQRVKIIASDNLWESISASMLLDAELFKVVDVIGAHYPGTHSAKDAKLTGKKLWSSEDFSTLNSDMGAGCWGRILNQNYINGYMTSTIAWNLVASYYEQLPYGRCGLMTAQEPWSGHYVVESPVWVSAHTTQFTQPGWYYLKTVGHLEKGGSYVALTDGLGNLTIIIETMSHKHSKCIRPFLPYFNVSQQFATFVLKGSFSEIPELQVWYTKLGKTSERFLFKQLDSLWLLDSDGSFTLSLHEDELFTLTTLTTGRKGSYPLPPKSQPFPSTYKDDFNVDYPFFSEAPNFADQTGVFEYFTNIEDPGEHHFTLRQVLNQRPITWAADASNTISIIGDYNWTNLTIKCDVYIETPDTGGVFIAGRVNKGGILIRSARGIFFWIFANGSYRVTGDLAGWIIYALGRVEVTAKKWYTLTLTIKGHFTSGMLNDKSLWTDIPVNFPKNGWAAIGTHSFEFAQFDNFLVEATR

activation, inactive:
COc1cc(C2CC(=O)N(c3ccccc3)C3=C2C(=O)OC3)cc(OC)c1OC (stereo unspecified) -2.38%
O=C(NC1CCCCCC1)c1ccc2c(c1)sc1nc(-c3ccccc3)cn12 -14.2%
CCOC(=O)c1c(C)[nH]c(C)c1S(=O)(=O)N1CCCC(C(=O)Nc2ccc(F)cc2F)C1 (stereo unspecified) 1.6%
C=C(C)CSc1nc2sc3c(c2c(=O)n1-c1ccccc1)CCC(C)C3 (stereo unspecified) -7.79%
CCN1CCN(c2ncnc3c2cnn3-c2ccc(C)cc2)CC1 -12.6%
CC(C)c1ccc(NC(=O)c2cc(S(=O)(=O)NCc3ccccc3Cl)ccc2F)cc1 -6.3%
Cc1cc2ccccc2n1CCNC(=O)c1cccc(Cl)c1 -10.8%
CCOc1ccc(NC(=O)CSC2=Nc3ccccc3C3=NC(CC(=O)NCc4ccco4)C(=O)N23)cc1 (stereo unspecified) -11.6%
COc1ccc(CNC(=O)CC(c2ccc(OC)c(OC)c2)N2Cc3ccccc3C2=O)cc1 (stereo unspecified) -1.52%
CCOC(=O)c1sc2ncn(CC(=O)Nc3ccc(C)cc3Br)c(=O)c2c1C -1.93%
CCOc1cc(C(=O)N2CCc3c([nH]c4ccccc34)C2c2ccccc2)cc(OCC)c1OCC (stereo unspecified) -2.83%
N#Cc1c[nH]n2c(NC3CCCC3)c(-c3cccc(Cl)c3)nc12 25.7%
Cc1ccc(N(CC(=O)Nc2ccc(C)c(F)c2)S(=O)(=O)c2c(C)n[nH]c2C)cc1 -14.7%
COc1ccc(C)cc1NC(=O)Cn1c(=O)ccc2cc(S(=O)(=O)N3CCCC3)ccc21 -32.9%
COc1ccc(-c2noc(CSc3nnc(-c4ccncc4)n3-c3ccc(C)cc3)n2)cc1 -3.03%
CCc1ccc(Sc2cc(C(=O)NC(C)CC)c3ccccc3n2)cc1 (stereo unspecified) -14.4%
CCOc1ccc(OCC(=O)Nc2nnc3n2CCS3)cc1 -21.9%
COc1cccc(NC(=O)c2cnn(-c3ccccc3)c2-n2cccc2)c1 7.5%
CCOc1nc(NC(=O)NS(=O)(=O)Oc2ccccc2)nc(-c2ccccc2)n1 -11.3%
COc1cccc(CNC(=O)C2CCC(CNS(=O)(=O)c3ccc(Br)s3)CC2)c1 (stereo unspecified) -15.4%
CCOC(=O)C(Cc1c[nH]c2ccccc12)NC(=O)COc1ccc(Cl)c(C)c1 (stereo unspecified) -2.61%
CCOc1ccc(Sc2cc(C(=O)NCCc3ccccc3)c3ccccc3n2)cc1 -6.29%
Cc1ccc(CNC(=O)c2ccc3c(=O)n(-c4ccccc4)c(=O)[nH]c3c2)cc1 -1.06%
COC(=O)c1sc2cccc(F)c2c1S(=O)(=O)N1CCN(c2ccc(F)cc2)CC1 0.217%
Cc1nc2nc(SCC(=O)NCCc3ccc(Cl)cc3)nn2c(C)c1Cc1ccccc1 -5.96%
CCCSc1ncc(Cl)c(C(=O)Nc2nc3ccc(OCC)cc3s2)n1 -9.6%
COc1ccc2c(c1)CCc1c(C(=O)Nc3c(C)nn(Cc4ccc(Cl)c(Cl)c4)c3C)noc1-2 -14.5%
Cc1ccc(S(=O)(=O)c2nc(-c3cccc(C)c3)oc2N2CCN(c3ccccc3)CC2)cc1 -1.97%
COc1cc(OC)c(NC(=O)NCc2ccc3c(c2)CCN3C(=O)c2ccccc2)cc1Cl -10.9%
S=c1nc[nH]c2nc[nH]c12 -11.8%
CCOC(=O)CC1c2cc(OCC)c(OCC)cc2CCN1C(=O)Nc1cccc(Cl)c1 (stereo unspecified) -12.2%
CCc1ccccc1NC(=O)CSc1nc(-c2ccccc2OC)nc2c1Cc1c(CO)cnc(C)c1O2 -11.9%
Cc1ccc2c(c1)cc1c(=O)n(CC(=O)NC3CCCCC3)nc(C)n12 -14.8%
COC(=O)C(CCSC)NC(=O)c1cc2c(n(-c3ccc(C)cc3)c1=O)CC(C)(C)CC2=O (stereo unspecified) 4.58%
CC(=O)c1cc(C(=O)Nc2cc(C)cc(C)c2)c2ccccn12 -3.88%
CCCCC(CC)CNC(=O)C1CCC(CNS(=O)(=O)c2cccc3nsnc23)CC1 (stereo unspecified) -16.4%
Cc1cc(C)cc(OCCCn2c(CCNC(=O)C3CCCCC3)nc3ccccc32)c1 -16.9%
CCC(=O)N1c2ccc(S(=O)(=O)N3CCC(C)CC3)cc2CC1C (stereo unspecified) 0.13%
COc1ccc(CCNC(=O)CCCn2c(=O)c3ccccc3n(Cc3c(C)cc(C)cc3C)c2=O)cc1OC 10.4%
CCC(=O)Nc1ccc(-c2nnc3c4ccccc4c(C)nn23)cc1 -19.9%
O=C(NCc1ccccc1)c1ccc2c(c1)CCN2S(=O)(=O)c1ccccc1 -22.3%
NC(=O)C1(N2CCCCC2)CCN(CCCC(=O)c2ccc(F)cc2)CC1 -15.3%
CNC1(C)C2CCC(C2)C1(C)C (stereo unspecified) -7.87%
CNC(=O)c1ccc(Nc2nnc(-c3ccc(C)c(S(=O)(=O)N(C)C)c3)c3ccccc23)cc1 -3.29%
CCOC(=O)c1[nH]c(C)c(CCC(=O)NCc2ccccc2Cl)c1C -9.72%
CCCc1ccc(S(=O)(=O)N2CCC(Oc3ccc(-n4cnnn4)cc3)CC2)cc1 -9.37%
Cc1ccc(NC(=O)CSc2nc(=O)n(CCCN(C)C)c3c2CCC3)cc1F -4.64%
CC1CCN(S(=O)(=O)c2ccc(C(=O)Nc3sc4c(c3C(N)=O)CC(C)(C)NC4(C)C)cc2)CC1 0.26%
COc1cc(NC(=O)CSc2nc(-c3ccc(C)cc3)nc3c2Cc2ccccc2O3)cc(OC)c1 -1.56%
N#Cc1ccc(CSc2nc3c(c(=O)[nH]2)CCC3)cc1 -17.7%
Cc1cccc(C)c1-n1ncc(C(=O)N2CCN(c3ccccn3)CC2)c1C1CCN(C(=O)OC(C)(C)C)CC1 -11%
O=C(CC1C(=O)OCCN1Cc1ccccc1)Nc1ccc(F)cc1 (stereo unspecified) -1.53%
Cc1ccc(C)c(NC(=O)Cn2cc(C(=O)c3ccc(Cl)cc3)c(=O)c3ccc(C)nc32)c1 -9.95%
CC(=O)c1ccc(NC(=O)CSc2cn(CC(=O)N3CCCCCC3)c3ccccc23)cc1 -28.4%
Cc1cccc(-c2nc3c4ccccc4nc(NCc4ccc(Cl)cc4)n3n2)c1 25.9%
CC(C)Cn1c(=O)c2sccc2n2c(CCCC(=O)NCc3ccccc3Cl)nnc12 -12.3%
COc1ccc(NC(=O)CSc2oc(-c3ccco3)nc2S(=O)(=O)c2ccc(Br)cc2)c(OC)c1 -25.6%
COc1ccc(-c2cc(C(=O)NCc3ccc(F)cc3)c3c(-c4ccc(F)cc4)[nH]nc3n2)cc1OC -15.3%
CCc1ccc2oc(-c3cc(NC(=O)C(C)C)cc(C)c3O)nc2c1 -20.9%
CCCOc1ccc(-c2nonc2NC(=O)c2oc3ccc(C)cc3c2C)cc1OCCC -9.9%
O=C(Cn1cc(SCc2ccc(C(F)(F)F)cc2)c2ccccc21)N1CCCC1 -9.26%
CCOC(=O)N1CCC(NC(=O)c2cnn(-c3cccc(Cl)c3C)c2C2CCN(C(=O)OC(C)(C)C)CC2)CC1 -21.5%
CC(=O)N1c2ccc(S(=O)(=O)N3CCCCCC3)cc2CC1C(=O)NCc1ccc(Cl)cc1 (stereo unspecified) -10.7%
COc1cccc(CNC(=O)C2CCN(S(=O)(=O)c3cn(C)cn3)CC2)c1 -16.8%
O=C(CC1C(=O)OCCN1Cc1ccccc1)Nc1cccc(C(F)(F)F)c1 (stereo unspecified) -7.91%
COc1ccc(OC)c(NC(=O)c2cc(CN3CCCC3)on2)c1 -16.8%
Oc1ccc(Cl)cc1C1=Nc2ccccc2N=C(c2cccc(Br)c2)C1 -14.7%
CN1CCN(c2nc3c(S(=O)(=O)c4ccc(Br)cc4)nnn3c3ccsc23)CC1 -6.54%
CCc1sc(Nc2cccc(Cl)c2C)nc1-c1cc2cccc(OC)c2oc1=O -8.11%
COc1cccc(CN2CCc3nc(N4CCN(c5ncccn5)CC4)ncc3C2)c1 -21.3%
Cc1c(Cl)cccc1NC(=O)CSc1ncccc1C(=O)Oc1ccccc1Cl -15.1%
Cc1ccc(NC(=O)C(=O)NCC(c2cccnc2)N2CCN(C)CC2)cc1F (stereo unspecified) -26.1%
COC(=O)C(CCSC)NC(=O)c1c(C)oc2ncn(CC(C)C)c(=O)c12 (stereo unspecified) -7.39%
CCOCCSc1c(C)cnc2c1c(=O)n(C)c(=O)n2C -22.1%
Cc1ccc(N2C(=O)c3[nH]nc(-c4ccc(Cl)cc4)c3C2c2ccc(F)cc2)cc1 (stereo unspecified) -11.1%
COc1cc2ccccc2cc1C(=O)Nc1ccc(Cl)c(-c2nc3ccccc3o2)c1 -3.31%
COc1ccc(CNC(=O)c2cccc(-n3cnc4cccnc43)c2C)cc1 -6.94%
CCOc1ccc(NC(=O)Cn2ccn(-c3ccc(F)c(F)c3)c(=O)c2=O)cc1 -18.6%
COc1cccc(C(=O)Nc2ccc(-c3cn4cccnc4n3)cc2)c1OC 12.1%
COc1cc(OC)cc(C(=O)NCC(c2cccs2)S(=O)(=O)c2ccc(F)c(C)c2)c1 (stereo unspecified) -11.7%
COc1cc(C(=O)N2CCN(CCc3ccccn3)CC2)cc(OC)c1OC -9.39%
COc1ccc(NC(=O)CSCc2cnn(-c3ccccc3)c2-n2cccc2)cc1 -4.41%
CCn1ccc2cc(S(=O)(=O)N3CCC(C(=O)NCCc4ccc(C)cc4)CC3)ccc21 -1.3%
CCC(C)NC(=O)c1ccc2nc(Cc3ccc(OC)cc3)oc2c1 (stereo unspecified) -16.6%
NS(=O)(=O)c1ccc(NC(=O)c2ccc3c(c2)CCN3S(=O)(=O)c2ccccc2)cc1 -18.6%
CC1=C(c2ccc(C)cc2)S(=O)(=O)N(Cc2ccc(C(=O)Nc3ccc(F)cc3C)cc2)C1=O 0.336%
COc1ccccc1NC(=O)CN1C(=O)C2(SCC(=O)N2c2ccc(C)c(C)c2)c2ccccc21 (stereo unspecified) -21.5%
Cc1ccc(N(CC(=O)Nc2cc(C)cc(C)c2)S(=O)(=O)c2cccc3nonc23)cc1 -0.871%
CSc1ncc(Cl)c(C(=O)N(Cc2ccc(N(C)C)cc2)Cc2ccco2)n1 -15.2%
Cc1c(Cl)cccc1NC(=O)C(C)n1nnc2sc3c(c2c1=O)CCCC3 (stereo unspecified) -18.2%
Cc1c(C)n(C)c2ccc(C(=O)N3CCN(c4ccccc4)CC3)cc12 -5.48%
CCc1ccc(CNC(=O)CN2C(=O)c3cccnc3Oc3ccc(C)cc32)cc1 -7.14%
Cc1ccc2c(=O)cc(C(=O)Nc3ccc(S(=O)(=O)N4CCCCCC4)cc3)oc2c1C -7.66%
CCCCOc1ccc(CNC(=O)CCCN2C(=O)CSc3c2c(C)nn3-c2ccccc2)cc1 -13%
CCOC(=O)c1ccccc1NC(=O)c1sc2nc3n(c(=O)c2c1C)CCCC3 -14.7%
Cc1cc(C)cc(NC(=O)Cn2c(=O)c3ccccc3n3nncc23)c1 -2.76%
